From publication PMC11755959
No constants are given. Whether binding was seen depends on the method and setting. In cells and extracts the contact can be indirect. Some results given as binding are weak or reduced against the parent protein; the word gives no strength. For some assays here: Tags and fused reporters may be left off the sequences shown.

By UniProt entry, the sequences of proteins in these tests, tags left out.
UniProt P14635: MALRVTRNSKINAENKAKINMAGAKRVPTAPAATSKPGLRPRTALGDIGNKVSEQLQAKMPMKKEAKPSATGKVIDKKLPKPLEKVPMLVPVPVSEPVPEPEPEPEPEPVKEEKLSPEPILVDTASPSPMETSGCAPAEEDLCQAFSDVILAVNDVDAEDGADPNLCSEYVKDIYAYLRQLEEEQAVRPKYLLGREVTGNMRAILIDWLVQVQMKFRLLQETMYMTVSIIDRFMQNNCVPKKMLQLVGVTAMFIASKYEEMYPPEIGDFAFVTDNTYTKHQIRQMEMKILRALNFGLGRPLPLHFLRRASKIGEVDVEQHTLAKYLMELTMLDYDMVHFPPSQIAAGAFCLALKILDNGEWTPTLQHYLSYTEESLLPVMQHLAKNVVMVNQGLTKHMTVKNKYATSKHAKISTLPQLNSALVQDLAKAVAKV

Columns and labels:
[1] = target: T1, CCNB1IP1 187–277 truncate (human) (UniProt Q9NPC3); experiment: co-IP; WT and truncates (1-77, 78-186, 187-277) of CCNB1IP1 with MYC-cyclin B1; immunoprecipitation, blot for MYC; cell line not stated
T1 sequence: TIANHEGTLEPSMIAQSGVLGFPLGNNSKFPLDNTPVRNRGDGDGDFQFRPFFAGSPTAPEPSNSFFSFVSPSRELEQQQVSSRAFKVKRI

[2] = target: T2, FLAG-tagged CCNB1IP1 (human) (UniProt Q9NPC3); experiment: as above
T2 sequence: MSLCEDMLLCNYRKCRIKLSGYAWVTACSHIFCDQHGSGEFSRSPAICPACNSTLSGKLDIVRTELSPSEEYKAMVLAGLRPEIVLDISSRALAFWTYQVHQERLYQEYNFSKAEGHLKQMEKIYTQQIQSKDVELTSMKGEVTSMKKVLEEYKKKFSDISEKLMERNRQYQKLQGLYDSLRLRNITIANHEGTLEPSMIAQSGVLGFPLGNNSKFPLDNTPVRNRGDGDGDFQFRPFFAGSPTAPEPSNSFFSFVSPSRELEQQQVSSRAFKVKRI

[3] = target: T3, CCNB1IP1 78–186 truncate (human) (UniProt Q9NPC3); experiment: as above
T3 sequence: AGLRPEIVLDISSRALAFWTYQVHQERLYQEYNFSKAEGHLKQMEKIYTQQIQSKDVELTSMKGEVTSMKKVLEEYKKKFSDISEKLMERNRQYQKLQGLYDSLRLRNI

[4] = target: T4, CCNB1IP1 1–77 truncate (human) (UniProt Q9NPC3); experiment: as above
T4 sequence: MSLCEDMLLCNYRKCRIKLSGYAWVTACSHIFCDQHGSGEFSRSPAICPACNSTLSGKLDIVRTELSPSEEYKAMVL

[5] = target: T2, FLAG-tagged CCNB1IP1 (human); experiment: co-IP; FLAG-tagged CCNB1IP1 vector transfected into MHCC-97 H cells; 1% NP-40 lysis buffer (137 mM NaCl, 50 mM Tris-HCl pH 7.6, 1 mM EDTA, 10% glycerol); antibody overnight at 4 °C, protein G plus-agarose 2 h; Western blot for cyclin B1

binding [1]	binding [2]	binding [3]	binding [4]	binding [5]	Substance
no binding	binds	no binding	binds		MYC-tagged cyclin B1 (from UniProt P14635 1-433)
				binds	cyclin B1 (from UniProt P14635 1-433)
